Measurements as given in the BET-seq Pho4 binding data (Le et al. 2018).
The list shows a part of the results. The energies were worked out here from pooled read counts, against the library average; single values are noisy.

What follows are sequences tested against T1, Pho4 (S. cerevisiae) (UniProt P07270) (assay: relative binding free energy (BET-seq); higher = weaker binding). Settings: reference: library average.
T1 sequence: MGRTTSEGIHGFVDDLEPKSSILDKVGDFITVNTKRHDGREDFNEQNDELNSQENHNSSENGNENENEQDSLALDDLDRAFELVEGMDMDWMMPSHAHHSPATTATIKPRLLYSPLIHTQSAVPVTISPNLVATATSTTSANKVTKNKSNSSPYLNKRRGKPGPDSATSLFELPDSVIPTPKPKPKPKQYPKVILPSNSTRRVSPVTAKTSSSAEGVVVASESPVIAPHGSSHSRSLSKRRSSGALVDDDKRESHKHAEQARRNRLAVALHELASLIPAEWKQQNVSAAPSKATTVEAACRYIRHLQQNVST

Relative binding free energy, -0.13 kcal/mol:
CGGGACACGTGGTCGG
CGTGGCACGTGTTTTG
GTATGCACGTGCGTGT

Relative binding free energy, 0.25 kcal/mol:
TTCGTCACGTGATGCA
TTGTGCACGTGAGTTG
GGGTTCACGTGCTGGC

Relative binding free energy, 0.1 kcal/mol:
TGGATCACGTGCAGGT
TGTTACACGTGGTTTG
ATGGACACGTGATTTA
GGGATCACGTGCGGCT
GATAGCACGTGAGGTG

Relative binding free energy, 0.13 kcal/mol:
ATGCGCACGTGAAGTT
ATTATCACGTGTGGGA
TTTGTCACGTGGATGT
CAAGTCACGTGTGGCT
TTTGTCACGTGTTGCT

Relative binding free energy, -0.15 kcal/mol:
TAGGACACGTGGGGAA
GTATCCACGTGGGGGT

Relative binding free energy, 0.2 kcal/mol:
TAGCTCACGTGTTGAG
ATCGTCACGTGTCGTA
GGTGTCACGTGTTTCG

Relative binding free energy, 0.33 kcal/mol:
TTTTACACGTGAGTTG
TATTACACGTGAAATT
ATCGTCACGTGAAAGT

Relative binding free energy, 0.11 kcal/mol:
GCGGTCACGTGGTAGA
AGCATCACGTGGGATT
AGTGTCACGTGAATTA
AGAGGCACGTGAGGGG
ATGATCACGTGCTTTT
TCGTGCACGTGAGTGA

Relative binding free energy, 0.28 kcal/mol:
GCGTTCACGTGTGTTA
TTGATCACGTGACAGG
CTGTTCACGTGTTTGT

Relative binding free energy, -0.24 kcal/mol:
TATGGCACGTGGGACA
TGTGGCACGTGCTATA

Relative binding free energy, -0.03 kcal/mol:
CCTGGCACGTGGAGTA
GTGGCCACGTGCGAGG
TGTGCCACGTGTCGTT
GTCATCACGTGCGGGT

Relative binding free energy, -0.33 kcal/mol:
TTTAGCACGTGGGACG

Relative binding free energy, 0.37 kcal/mol:
CGGGTCACGTGATGTT

Relative binding free energy, -0.1 kcal/mol:
TGTGACACGTGGCCGG
AAGCGCACGTGTGGTT
TCGGGCACGTGTCTTG
TGAAGCACGTGTTTCG
AGGCGCACGTGGAGTA
GTTCACACGTGGGTGA
ATTGGCACGTGTATGA

Relative binding free energy, 0.14 kcal/mol:
TTCGTCACGTGCGGAG
GATTGCACGTGGAGTG
TGTGTCACGTGTGTGG

Relative binding free energy, -0.11 kcal/mol:
AGGGGCACGTGGATTA
CCGGGCACGTGTGGGA
TGCTGCACGTGGAGGG

Relative binding free energy, 0.15 kcal/mol:
GATGGCACGTGTAAGT
GGTGACACGTGCATGT
CGAATCACGTGGTTGG
TTCATCACGTGTATAG
TATATCACGTGGGGCC

Relative binding free energy, -0.12 kcal/mol:
ATAGTCACGTGCAGTT
AGTAGCACGTGTGGGC
TGTGGCACGTGTGCTA

Relative binding free energy, -0.04 kcal/mol:
TACGGCACGTGTTGCT
TGTGGCACGTGTGTGA
GGAGGCACGTGTAAGA
GTAGCCACGTGGCATG
TGGTGCACGTGTCCTG
CGTAACACGTGTGCGG

Relative binding free energy, 0.34 kcal/mol:
TATTTCACGTGTCTCG
CAAATCACGTGTGAGT

Relative binding free energy, 0.05 kcal/mol:
AAGTGCACGTGATTTG
TGTAGCACGTGCGGAT
CGGGACACGTGGTGAT

Relative binding free energy, -0.09 kcal/mol:
GATGGCACGTGTGAGT
ATATGCACGTGCAGTT
ATATCCACGTGGTGGT

Relative binding free energy, -0.26 kcal/mol:
CGGGGCACGTGGGGGG
CGCGGCACGTGGGGTT

Relative binding free energy, -0.02 kcal/mol:
GGGTGCACGTGGACGT
AACGGCACGTGTATGG
CAAATCACGTGGGTTG
TAGGGCACGTGATTTG

Relative binding free energy, 0.47 kcal/mol:
TTATTCACGTGTAGAT
TGGTTCACGTGGAAGC

Relative binding free energy, 0.02 kcal/mol:
AGTGACACGTGTTGGA
TGGGTCACGTGGCCCG
TTAGACACGTGGTGGG
GCGTGCACGTGATGAG
ATAGTCACGTGGGTCG
AAGTACACGTGGGCGT

Relative binding free energy, 0.03 kcal/mol:
CTGATCACGTGTATGT
GAAGTCACGTGGGTCA
CTGGACACGTGGGGGG
ATTGTCACGTGTCGAT
GATTGCACGTGTCGGG
GAGATCACGTGTTTGG
TTATACACGTGATCGT

Relative binding free energy, 0.01 kcal/mol:
GTTGTCACGTGCATGG
ACTGTCACGTGTCGGT
TATCACACGTGTGTGT
TTAAACACGTGGAGAG
CCTGTCACGTGTTTGG
TCTGACACGTGGTTGG
TTGGACACGTGTAGGT

Relative binding free energy, -0.05 kcal/mol:
GGGTGCACGTGCGTTT
CGGGGCACGTGTAAGG
AGTAGCACGTGTGCAT
CGAGACACGTGTTGGG
CTTGGCACGTGTTGCG

Relative binding free energy, 0.08 kcal/mol:
GGAATCACGTGGGCTT
GTGGACACGTGGTATA
TGGTACACGTGTTGAT

Relative binding free energy, -0.21 kcal/mol:
AGAGCCACGTGGTCGG
ATATGCACGTGGGTCG

Relative binding free energy, -0.06 kcal/mol:
CTTCGCACGTGTGTTT
CGTCACACGTGGTTGT
TGTTACACGTGGGGGT
CAGCGCACGTGTGGGT
GGTTGCACGTGGGATG
ACTAGCACGTGTAGGG

Relative binding free energy, 0.49 kcal/mol:
GTTTACACGTGATGAA

Relative binding free energy, -0.18 kcal/mol:
AGTGGCACGTGTAGTA
TGCAGCACGTGGGGAG
CTGGGCACGTGGTCTT

Relative binding free energy, 0.09 kcal/mol:
TGTTGCACGTGTTCTT
TAGTACACGTGTACGG

Relative binding free energy, 0.18 kcal/mol:
GTTATCACGTGGGGCC
AGAATCACGTGGCAGG
CGTGACACGTGAGGGG
GTCTGCACGTGTCAGG
AGGGACACGTGAGTAG

Relative binding free energy, -0.07 kcal/mol:
GTAAGCACGTGGTAAT
GTTAGCACGTGGCCGG
TGGCACACGTGCGGTG
TTATGCACGTGGTCAA

Relative binding free energy, 0.27 kcal/mol:
GTATGCACGTGAAATG
GTGAGCACGTGAATAT

Relative binding free energy, -0.2 kcal/mol:
TCGGGCACGTGGTGCA
TGAGGCACGTGCTTGT
AGATGCACGTGGCGTG
ATTGCCACGTGTGTAT

Relative binding free energy, 0.16 kcal/mol:
TTGTCCACGTGAGTGT

Relative binding free energy, 0.06 kcal/mol:
AATTGCACGTGTTTGA
CCAATCACGTGGGGTG
TTGCACACGTGTTTGT
TTGGGCACGTGAGGAC
TGTTGCACGTGTGGAG

Relative binding free energy, 0.4 kcal/mol:
TTCATCACGTGAAGGA

Relative binding free energy, 0.44 kcal/mol:
AGGTTCACGTGAAATG
GGTATCACGTGAGTTG

Relative binding free energy, 0.41 kcal/mol:
GACGTCACGTGATATG

Relative binding free energy, 0.32 kcal/mol:
AGGTTCACGTGATGTT

Relative binding free energy, 0.24 kcal/mol:
GTGCTCACGTGTTAAG
GATTTCACGTGTGTGC
TAGTTCACGTGCGATT
GAACTCACGTGGTTGT

Relative binding free energy, 0.21 kcal/mol:
TAGGGCACGTGAGCGC
TCAGTCACGTGAGATG
TGGTACACGTGACGAG
TGTGTCACGTGAACTT

Relative binding free energy, -0.01 kcal/mol:
CGGCGCACGTGTGGTT
ATTTGCACGTGCGGAT
GCTAACACGTGGGGAG

Relative binding free energy, 0.35 kcal/mol:
TTGGTCACGTGAAATA
TTTTTCACGTGTGAAA

Relative binding free energy, 0 kcal/mol:
TGATACACGTGTAATG
TTCTCCACGTGGTTTG
CAGGACACGTGGTGGT

Relative binding free energy, 0.19 kcal/mol:
GTTGTCACGTGCCGTG
GAGTACACGTGTTGGA
AGGTTCACGTGCGGCG
AGACTCACGTGGAGGG
GGGCTCACGTGTATGT

Relative binding free energy, 0.17 kcal/mol:
GCTGGCACGTGTAATT
AGCTTCACGTGTGTGT
AGGGTCACGTGTGTGC
TGGGTCACGTGCGACT
TGATACACGTGTTACG
GTGTACACGTGAGTGC
AGGTTCACGTGGCGGT

Relative binding free energy, 0.26 kcal/mol:
ATGGTCACGTGAGGCT
TGGTTCACGTGTGCTG
AGGTTCACGTGAAGGA
AAGGTCACGTGTCAGG
TAAGTCACGTGAGTTC

Relative binding free energy, -0.17 kcal/mol:
GGGGCCACGTGGGCGA
TATGCCACGTGGGGAT

Relative binding free energy, -0.3 kcal/mol:
ATGGGCACGTGCGAGT
TATACCACGTGGTGTT

Relative binding free energy, 0.07 kcal/mol:
GTGGGCACGTGACCGT
ACGGTCACGTGTCGTG
AGCAGCACGTGAGTTG

Relative binding free energy, -0.19 kcal/mol:
TTGGGCACGTGCGGTC
ATGGGCACGTGGGGAA

Relative binding free energy, 0.04 kcal/mol:
GGAGTCACGTGGGTGG
ATAAACACGTGTATTT

Relative binding free energy, -0.16 kcal/mol:
CGAGGCACGTGTTTGT
CGGGGCACGTGGGAGG
AAGGGCACGTGTAGCG

Relative binding free energy, -0.28 kcal/mol:
TGGGGCACGTGGTGCA

Relative binding free energy, -0.14 kcal/mol:
TTATGCACGTGGTCGC
ATTTGCACGTGTTCAG
TGAAGCACGTGGGATG
GTGAGCACGTGCTTGT
TATGCCACGTGGTAGG
GTCGTCACGTGGGGAA

Relative binding free energy, 0.31 kcal/mol:
AGGATCACGTGAGTAT
TAATTCACGTGGAGAG
GAGTTCACGTGGACGG
TCGGACACGTGAAGTG

Relative binding free energy, 0.22 kcal/mol:
TTAGTCACGTGTCCTT
GTTTACACGTGTTAGC
CTGGTCACGTGTGCGC
TAATCCACGTGATTGT

Relative binding free energy, -0.08 kcal/mol:
TAAGGCACGTGGAAGT
TGGTGCACGTGGGTTC
CTGTGCACGTGTATGT
AGCGTCACGTGCGGTA
GTGGACACGTGGCTTA

Relative binding free energy, 0.23 kcal/mol:
TATTTCACGTGGGTTG
ATGGTCACGTGTATCG
GGGGGCACGTGAACCT
ATTTGCACGTGAGCAG

Relative binding free energy, 0.12 kcal/mol:
TTAAGCACGTGAATAT
CGGTACACGTGTAGGT

Relative binding free energy, 0.29 kcal/mol:
CTTTTCACGTGGAGAT
TTTGTCACGTGATTCG
ACTTTCACGTGTTGGG
GCAATCACGTGGATGT
CCTTTCACGTGTTGGT
